Results from publication PMC4336329 (PLoS ONE, 2015).
In all, about 310,000 compounds went through this assay and about 2,200 (0.71%) showed an effect of 50% or more. Effects have a minus sign here. Some of the results follow.

What follows are compounds tested against human ether-à-go-go-related gene (hERG) potassium channel (human, UniProt Q12809) (assay: primary screen, population patch clamp on CHO cells stably expressing hERG).
Chain of human ether-à-go-go-related gene (hERG) potassium channel (Q12809 whole entry, looked up): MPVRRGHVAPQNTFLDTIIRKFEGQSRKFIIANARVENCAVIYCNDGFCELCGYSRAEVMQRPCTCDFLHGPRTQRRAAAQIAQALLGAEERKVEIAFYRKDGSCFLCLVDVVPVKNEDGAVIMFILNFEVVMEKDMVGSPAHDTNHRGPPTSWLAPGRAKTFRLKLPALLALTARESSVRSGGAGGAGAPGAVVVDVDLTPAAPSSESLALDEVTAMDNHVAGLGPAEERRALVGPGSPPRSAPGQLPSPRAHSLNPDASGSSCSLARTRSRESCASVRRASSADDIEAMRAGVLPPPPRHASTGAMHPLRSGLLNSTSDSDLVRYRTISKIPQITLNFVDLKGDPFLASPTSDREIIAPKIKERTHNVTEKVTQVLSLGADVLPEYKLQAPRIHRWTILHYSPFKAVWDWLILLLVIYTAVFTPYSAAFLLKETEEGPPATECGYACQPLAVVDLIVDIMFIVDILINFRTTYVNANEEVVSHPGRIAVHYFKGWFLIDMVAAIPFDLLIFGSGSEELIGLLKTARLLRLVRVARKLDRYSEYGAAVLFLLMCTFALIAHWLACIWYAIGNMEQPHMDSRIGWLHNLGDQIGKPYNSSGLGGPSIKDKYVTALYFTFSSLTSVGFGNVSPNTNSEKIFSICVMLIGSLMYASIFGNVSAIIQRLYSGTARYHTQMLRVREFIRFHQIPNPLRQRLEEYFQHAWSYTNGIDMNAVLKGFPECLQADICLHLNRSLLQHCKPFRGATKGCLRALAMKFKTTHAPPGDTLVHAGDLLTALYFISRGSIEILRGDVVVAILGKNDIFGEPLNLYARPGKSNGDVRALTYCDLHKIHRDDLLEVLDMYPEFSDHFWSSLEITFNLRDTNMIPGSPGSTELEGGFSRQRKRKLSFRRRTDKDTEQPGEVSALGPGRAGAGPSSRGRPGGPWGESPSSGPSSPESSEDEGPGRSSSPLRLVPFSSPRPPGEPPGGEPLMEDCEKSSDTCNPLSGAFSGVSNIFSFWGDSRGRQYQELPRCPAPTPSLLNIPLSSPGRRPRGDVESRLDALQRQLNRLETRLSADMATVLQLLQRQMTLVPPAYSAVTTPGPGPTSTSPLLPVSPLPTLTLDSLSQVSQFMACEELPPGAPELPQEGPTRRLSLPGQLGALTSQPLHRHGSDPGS

First: Cc1ccccc1NC(=O)COC(=O)c1cc(S(=O)(=O)N2CCOCC2)ccc1C
Second: Cc1ccc(NC(=O)CSc2nnc(N)s2)cc1S(=O)(=O)N1CCOCC1
The “hERG current change (%, negative = inhibition) at 1uM” value of the first is lower: 8.11% for the first, 17.3% for the second.

Going from `C/C(=N\NC(=O)CSc1nc(C)cc(C)n1)c1ccc([N+](=O)[O-])cc1` to `CCc1nnc(N/N=C/c2ccc(-c3ccc([N+](=O)[O-])cc3)o2)n1N`, the “hERG current change (%, negative = inhibition) at 1uM” value rises from 6.49% to 14.5%.

Compared with `O=Cc1ccccc1OCCOc1ccc([N+](=O)[O-])cc1`, `COc1ccc(C(=O)NC(C)CCc2ccccc2)cc1[N+](=O)[O-]` (centres unmarked) is higher in “hERG current change (%, negative = inhibition) at 1uM” value: -11.9% for the first, 2.07% for the second.

First: CCN1CCN(C(=O)CCN2C(=O)c3ccccc3S2(=O)=O)CC1.Cl
Second: Cn1cc(S(=O)(=O)N2CCN(Cc3ccccc3)CC2)c(=O)n(C)c1=O
The “hERG current change (%, negative = inhibition) at 1uM” value of the first is higher: 10.2% for the first, -1.48% for the second.

Compared with `CCOC(=O)NN=C1CN(S(=O)(=O)c2ccc(C)cc2)C1`, `O=C(c1cccs1)N1CCN(S(=O)(=O)c2ccc(F)cc2)CC1` is lower in “hERG current change (%, negative = inhibition) at 1uM” value: 17.2% for the first, 1.13% for the second.

Compared with `COc1ccccc1Nc1ccncc1[N+](=O)[O-]`, `O=C(Nc1ccc(F)c(F)c1)c1cccnc1` is lower in “hERG current change (%, negative = inhibition) at 1uM” value: 14.6% for the first, 0.273% for the second.

Going from `CNC(=O)c1ccc(NC(=O)c2cc(S(=O)(=O)N(C)C)ccc2N2CCCC2)cc1` to `O=C(Nc1ccc2c(c1)CCCN2C(=O)c1cccs1)c1ccccc1`, the “hERG current change (%, negative = inhibition) at 1uM” value falls from 9.45% to 6.36%.

First: COc1cc(NC(=S)N2CCN(c3ccccn3)CC2)cc(OC)c1
Second: COc1cc2c(cc1OC)CN(C(=O)C1(c3ccccc3)CC1)CC2
The “hERG current change (%, negative = inhibition) at 1uM” value of the first is higher: 17.7% for the first, 7.07% for the second.

Going from `FC(F)(F)c1ccccc1CN1CCC(Cc2ccccc2)CC1` to `Cc1ccccc1NC(=S)NCCc1ccccc1`, the “hERG current change (%, negative = inhibition) at 1uM” value falls from 13.1% to 7.94%.

Going from `CCOC(=O)c1oc2nc(C(C)C)c3c(c2c1N)CCC3` to `CCOC(=O)c1sc(=S)n(C)c1N`, the “hERG current change (%, negative = inhibition) at 1uM” value falls from 12.7% to 0.652%.

Compared with `COc1ccc(NC(=O)c2cc(F)c(F)cc2Cl)cc1Cl`, `O=C(NCCc1ccncc1)Nc1ccc(Cl)c(Cl)c1` is lower in “hERG current change (%, negative = inhibition) at 1uM” value: 5.67% for the first, -9.28% for the second.

First: CCS(=O)(=O)Nc1cccc(C2=NN(S(C)(=O)=O)C(c3cccs3)C2)c1 (centres unmarked)
Second: O=C1CCC(=O)N1c1ccc(S(=O)(=O)Nc2cccc(Br)c2)cc1
The “hERG current change (%, negative = inhibition) at 1uM” value of the first is lower: 3.36% for the first, 14.2% for the second.

Going from `CC(=O)c1cccc(CN2CCN(CCC(C)C)C(CCO)C2)c1` (centres unmarked) to `CCOC(=O)C1(Cc2cccc(Cl)c2)CCCN(C(=O)CCNC(C)=O)C1` (centres unmarked), the “hERG current change (%, negative = inhibition) at 1uM” value rises from 0.17% to 15.5%.

Compared with `CCN(CC)C(=O)CC(c1cc(OC)c(OC)c(OC)c1)c1c(O)cc(OC)cc1OC` (centres unmarked), `COc1cc(NC(=O)CNC(=O)Cn2ccc3ccccc3c2=O)cc(OC)c1OC` is higher in “hERG current change (%, negative = inhibition) at 1uM” value: 8.36% for the first, 15.1% for the second.

Compared with `CNC(=S)NNC(=O)c1oc2nc(-c3ccccc3)cc(-c3ccco3)c2c1N`, `Cc1ccc(/C=N/NC(=O)c2c(-c3ccccc3)noc2C)c(O)c1` is lower in “hERG current change (%, negative = inhibition) at 1uM” value: 13.4% for the first, 1.87% for the second.

First: O=C(O)c1cc(N2C(=O)C3CCCCC3C2=O)ccc1NCc1cccnc1 (centres unmarked)
Second: O=C(NCc1cccnc1)c1c(O)c2cccc3c2n(c1=O)CCC3
The “hERG current change (%, negative = inhibition) at 1uM” value of the first is higher: 24.6% for the first, -9.52% for the second.

Compared with `O=C(c1cn(-c2ccccc2)nc1-c1cccs1)N1CCOCC1`, `O=C(COC(=O)c1cc(=O)[nH]c2ccccc12)c1cccs1` is higher in “hERG current change (%, negative = inhibition) at 1uM” value: 4.92% for the first, 15.1% for the second.

First: Cc1cc(C)c([N+](=O)[O-])cc1-c1ccc(/C=N/NC(=O)c2nonc2N)o1
Second: C/C(=N/NS(=O)(=O)c1ccc(C)c(C)c1)c1c[nH]c2ccccc12
The “hERG current change (%, negative = inhibition) at 1uM” value of the first is lower: -3.28% for the first, 21.7% for the second.

First: CCCCNC1=CC(=O)C(=O)c2ccccc21
Second: CCCCn1c(Cc2ccccc2)nnc1SCC(=O)Nc1cc(C)on1
The “hERG current change (%, negative = inhibition) at 1uM” value of the first is lower: 6.58% for the first, 9.89% for the second.

Compared with `CCc1ccc(NC(=S)N(Cc2cccnc2)Cc2ccco2)cc1`, `O=C(Nc1ccc2oc(-c3ccncc3)nc2c1)c1ccccc1` is higher in “hERG current change (%, negative = inhibition) at 1uM” value: 4.58% for the first, 10% for the second.

Compared with `C=CCOc1ccc(/C=C2\SC(N)=NC2=O)cc1OC`, `CCOc1c2ccoc2nc2c(OC)c(OC)ccc12` is lower in “hERG current change (%, negative = inhibition) at 1uM” value: 9.73% for the first, 3.61% for the second.

Going from `CCOC(=O)c1c(NC(=O)Cn2nc(C(=O)O)c3ccccc3c2=O)sc(CC)c1C` to `O=C(COC(=O)c1cc2ccccc2oc1=O)Nc1cccc(Br)c1`, the “hERG current change (%, negative = inhibition) at 1uM” value rises from 11.9% to 20.4%.

Compared with `CC(C(=O)O)n1nc2ccccc2n1` (centres unmarked), `CCOC(=O)C1CCCN(C(=O)c2ccccc2[N+](=O)[O-])C1` (centres unmarked) is lower in “hERG current change (%, negative = inhibition) at 1uM” value: 17.9% for the first, 8.22% for the second.

Compared with `CCN(CC(=O)Nc1c(F)cccc1F)C(=O)C1CC1`, `O=C(COC(=O)/C=C/c1cccc(F)c1)NC1CCCC1` is higher in “hERG current change (%, negative = inhibition) at 1uM” value: 2.88% for the first, 3.56% for the second.

First: O=C1CC(N2CCC(c3nc4ccccc4o3)CC2)C(=O)N1c1ccc(F)cc1 (centres unmarked)
Second: COc1ccc(N2C(=O)CC(NCc3cccs3)C2=O)cc1 (centres unmarked)
The “hERG current change (%, negative = inhibition) at 1uM” value of the first is lower: 1.75% for the first, 7.13% for the second.

First: CCN(CC)C(=O)CN(c1cccc(C(F)(F)F)c1)S(C)(=O)=O
Second: COc1ccc(Cl)cc1N(CC(=O)Nc1ccccc1SC)S(C)(=O)=O
The “hERG current change (%, negative = inhibition) at 1uM” value of the first is higher: 7.31% for the first, -7.22% for the second.

Going from `Nn1c(Cc2ccccc2F)n[nH]c1=S` to `Cc1nnc(Nc2ccc(Cl)cc2)s1`, the “hERG current change (%, negative = inhibition) at 1uM” value falls from 20.4% to 11.2%.

Compared with `CCOC(=O)/C(C#N)=C1\SS/C(=C(/C#N)C(=O)OCC)S1`, `CCOc1cc2[nH]c(=S)n(Cc3ccc(C(=O)NCCOC)cc3)c(=O)c2cc1OCC` is lower in “hERG current change (%, negative = inhibition) at 1uM” value: 9.55% for the first, 7.68% for the second.

Going from `Fc1ccc(CSc2nsc(SCc3ccc(F)cc3)n2)cc1` to `COc1ccc2[nH]c(C)c(C(=O)CN3CCOCC3)c2c1`, the “hERG current change (%, negative = inhibition) at 1uM” value rises from 8.76% to 10.4%.

With `Cc1cc2c(C)c(C)c(=O)[nH]c2cc1N` the “hERG current change (%, negative = inhibition) at 1uM” value was 12.2%.
